Activation and Potency data for 44 compounds are collected here from PubChem BioAssay AID1645887 (National Center for Advancing Translational Sciences (NCATS), 2021).

Molecules are shown by their SMILES. “And” between values parts separate entries of the source, which are not always exact repeats. Identical values can stand only once. The whole screen tested about 16,000 compounds, of which about 40 (0.2%) were called active. Not shown: some 1% with an inconclusive outcome. Calls follow the shape of the dose curve; as a rule, active = well fitted activation curve with a large enough effect; inconclusive = small, poorly fitted or top-dose-only effect, or another doubt; inactive = no such curve, though single readings can be large or run the other way. The list shows a part of the results.
% is scaled to controls: 0 for no effect and ±100 for the full control effect; potency is read from the fitted curve at half-maximal effect.

For the experiment, the target named is Rap guanine nucleotide exchange factor 4 (Homo sapiens) (UniProt Q8WZA2). Description: Validation qHTS for agonist of cAMP-regulated guanine nucleotide exchange factor 4 (EPAC2).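 As to Activation: exchange makes BODIPY-GDP fluorescence drop when released from Rap1B; series mostly up to about 150 µM.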 The settings on record: EPAC2 Rap1B BODIPY-GDP exchange, fluorescence; activation: stronger effect = higher value. An excerpt: Principle Investigator: Xiaodong Cheng Ph.D.
Chain of UniProt Q8WZA2 (Q8WZA2 whole entry, looked up): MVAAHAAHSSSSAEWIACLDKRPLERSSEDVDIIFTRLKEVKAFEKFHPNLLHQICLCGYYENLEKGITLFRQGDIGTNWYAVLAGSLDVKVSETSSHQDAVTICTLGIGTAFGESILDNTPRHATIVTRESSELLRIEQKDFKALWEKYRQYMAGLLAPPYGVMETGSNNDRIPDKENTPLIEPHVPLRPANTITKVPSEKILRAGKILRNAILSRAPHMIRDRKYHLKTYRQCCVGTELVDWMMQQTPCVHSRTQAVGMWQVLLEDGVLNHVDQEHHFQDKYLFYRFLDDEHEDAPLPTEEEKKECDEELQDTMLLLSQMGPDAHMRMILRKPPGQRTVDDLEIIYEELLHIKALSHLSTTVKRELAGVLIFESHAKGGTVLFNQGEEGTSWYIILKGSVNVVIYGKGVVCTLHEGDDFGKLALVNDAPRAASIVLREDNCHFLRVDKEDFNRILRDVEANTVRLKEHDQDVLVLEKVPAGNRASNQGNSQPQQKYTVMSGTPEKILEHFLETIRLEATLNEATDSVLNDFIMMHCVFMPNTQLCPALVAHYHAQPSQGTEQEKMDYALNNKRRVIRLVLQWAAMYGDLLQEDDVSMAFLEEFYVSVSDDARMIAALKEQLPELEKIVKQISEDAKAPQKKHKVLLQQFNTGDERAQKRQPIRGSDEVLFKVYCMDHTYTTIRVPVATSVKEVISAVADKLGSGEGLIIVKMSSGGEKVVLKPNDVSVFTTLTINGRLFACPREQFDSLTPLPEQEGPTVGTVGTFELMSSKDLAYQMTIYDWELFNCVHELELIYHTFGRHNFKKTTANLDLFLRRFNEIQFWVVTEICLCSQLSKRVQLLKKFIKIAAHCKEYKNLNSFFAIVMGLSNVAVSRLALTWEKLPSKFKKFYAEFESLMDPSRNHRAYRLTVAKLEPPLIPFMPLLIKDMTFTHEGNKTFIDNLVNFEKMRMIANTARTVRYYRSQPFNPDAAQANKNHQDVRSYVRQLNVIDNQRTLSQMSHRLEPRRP
The University of Texas Medical Branch, […], TX
In multi-cellular eukaryotic organisms, the effects of cAMP are transduced by two ubiquitously-expressed intracellular cAMP receptors, the classic protein kinase A/cAMP-dependent protein kinase (PKA/cAPK) and the more recently discovered exchange protein directly activated by cAMP/cAMP-regulated guanine nucleotide exchange factor (EPAC/cAMP-GEF). Both PKA and EPAC are ubiquitously expressed in all tissues, and an increase in intracellular cAMP levels will lead to the activation of both PKA and EPAC. Therefore, careful dissections of the individual role and relative contribution of EPAC and PKA within the overall cAMP signaling in various model systems are critical for further elucidating the mechanism of cAMP signaling. To date no EPAC-specific antagonists and agonist, as well as isoform-specific agonists have been reported, and developing EPAC-specific pharmacological probes to determine the physiological functions that EPAC play in the overall cAMP-mediated signaling remains a major challenge within the research field. Furthermore, identified regulators of EPAC may lead to new mechanism-based therapeutic strategies specifically targeting the EPAC / cAMP-signaling components as EPAC has been implicated to play important roles in major human pathological conditions such as diabetes, heart disease, and cancer.
This qHTS will be used to screen the Molecular Libraries Small Molecule Repository (MLSMR) as a concentration-titration series using the NCGC unique quantitative screening (qHTS) platform to find activators for EPAC1. In addition, this assay will also be used as a counterscreen for the EPAC2 qHTS. This fluorescent based assay is developed and validated for EPAC1 that measures exchange using EPAC effector Rap1 complex with BODIPY-GDP, a GDP analog with a tethered fluorophores. Activators are identified by monitoring the change in fluorescence signal as the exchanged free BODIPY-GDP has a reduced fluorescence compared to Rap1-bound BODIPY-GDP. Increase in signal (activation) is the desired outcome for the EPAC1 agonist while no activity in this assay is desired for the EPAC2 agonist counterscreen.
[1] de Rooij, J., Zwartkruis, F. J., Verheijen, M. H., Cool, R. H., Nijman, S. M., Wittinghofer, A., and Bos, J.L. (1998) Nature 396, 474-477.
Briefly, three uL of reagents (100 nM EPAC2, 250 nM RAP1B-BODIPY-GDP, 50 uM GDP) were dispensed into a 1536-well Greiner black solid-bottom medium binding assay plate. Controls and test compounds (23 nL) were transferred to the plate via a Kalypsys pin tool equipped with a 1536-pin array. The plates were centrifuged at 1,000 rpm for 15 seconds followed by 5 minute incubation at room temperature. The assay plates were read at 5 minute intervals for 30 minutes in the ViewLux plate reader using 480nm excitation and 540nm emission filters. The results were normalized to the agonist positive control of 6.5 mM cAMP.
For orientation: qHTS replaces the single test concentration by a dilution series.
As to `COc1ccc(SCCN2CC[C@@H](NC(=O)OCc3ccccc3)CCC2=O)cc1`, the activation is inactive: -14.1%.
Still for that read-out and setting: under `O=C(c1nc2ncccn2n1)N1CCOc2ccc(C(O)C(c3ccccc3)c3ccccc3)cc2C1` (centres undefined) stands inactive: 2.27%.
The same measure, in the same setting: for `C[C@H](N=C(NC#N)Nc1ccncc1)C(C)(C)C` the value was inactive: -16.7%.
Turning to `CN1C[C@H](C(=O)N[C@@]2(C)O[C@@]3(O)C4CCCN4C(=O)C(Cc4ccccc4)N3C2=O)C[C@H]2c3cccc4[nH]cc(c34)C[C@H]21` (some centres undefined), the activation was inactive: -3.24%.
On the same count and under the same terms, under `O=S1(=O)CCOCCCN1Cc1ccccc1F` stands inactive: -9.79%; under `O=C1CC(c2ccc(O)cc2)Oc2ccccc21` (centres undefined), inactive: -9.69%; under `O=C(C[n+]1cccc2cccc(O)c21)c1ccc(Cl)cc1`, inactive: -41.7%.
Still for that read-out and setting: for `Cc1cc(O)c(C=O)c2c1C(=O)Oc1c(COC(=O)/C=C/C(=O)O)c(O)c(C(=O)O)c(C)c1O2` the value was inactive: -23.7%; for `COc1cc(CNCc2cc3ccc(F)cc3nc2N2CCOCC2)cc(OC)c1OC`, inactive: -8.48%.
Same read-out and setting: under `O=C(NC1CCC(n2cc(C(=O)NC3CC3)nn2)CC1)C(=O)c1ccccc1` (centres undefined) stands inactive: -2.92%; under `C#Cc1cccc(Nc2ncnc3cc(OC)c(OC)cc23)c1`, inactive: -13.1%; under `O=S(=O)(c1ccccc1)N1CCC[C@@]2(CCN(Cc3nccs3)C2)C1`, inactive: -18.5%.
`CN(C)c1ccc(-c2ccc3ncnc(N(C)C)c3c2)cc1`: the activation was inactive: -6.19%.
Still for that read-out and setting: under `CN(C)CCOC(=O)COc1ccc(Cl)cc1` stands inactive: -6.08% and inactive: -11.5% and inactive: -6.76%; under `CCOC(=O)c1cccnc1`, inactive: -6.59%; under `Brc1c(NC2=NCCN2)ccc2nccnc12`, inactive: -17.3% and inactive: -17% and inactive: -14.5%.
As for `Nc1cc(-c2ccncc2)c[nH]c1=O`, the Potency is active: 100 µM.
Regarding `CCOC(=O)c1c(C)n(C)c2ccc(O)cc12`, the activation was inactive: 0.314%.
Still for that read-out and setting: under `C[C@H]1C[C@@H]2[C@H]([C@@H](O)C[C@@]3(C)[C@H]2CC[C@]3(O)C(=O)COC(=O)CCC(=O)O)[C@@]2(C)C=CC(=O)C=C12` stands inactive: 9%; under `OCCOCCOCCO`, inactive: -10.7%.
In the case of `Cc1onc(-c2ccccc2)c1C(=O)NCCN1Cc2ccccc2OC(c2ccsc2)C1` (centres undefined), the activation was inactive: -25%.
For the compound `COC(=O)C(N)CS` (centres undefined), the activation is inactive: -9.24%.
The same measure, in the same setting: under `CC(=O)OC1CCC2(O)CC1(C)CCC1C2CC1(C)C` (centres undefined) stands inactive: -18.1%; under `COc1ccc(-c2oc3ccccc3c(=O)c2O)cc1`, inactive: -6.99%.
On the same count and under the same terms, under `Cc1c(C(=O)NCCO)[n+](=O)c2ccccc2n1[O-]` stands inactive: 6.43%; under `CC(N)C12CC3CC(CC(C3)C1)C2` (centres undefined), inactive: -6.29%.
The same measure, in the same setting: for `CCCCc1ccc2nc(NC(=O)OC)[nH]c2c1` the value was inactive: -6.22%.
Turning to `COc1ccc(CNC(=O)[C@@H]2CC=C[C@@H]3CCN(C4CC4)C(=O)[C@@H]32)cc1`, the activation was inactive: -19%.
On the same count and under the same terms, for `COc1cc2oc(=O)c3c4c(cc5ccc(c1CCN(C)C)c2c53)OCO4` the value was inactive: -20.1%.
The same measure, in the same setting: under `CS(=O)(=O)Nc1ccc([N+](=O)[O-])cc1OC1CCCCC1` stands inactive: -19.7% and inactive: 11.7%; under `NC(N)=NCC1COc2ccccc2O1` (centres undefined), inactive: -33.2%.
Still for that read-out and setting: for `COc1ccc2[nH]cc(CCNc3cc(-c4ccc(C(=O)N(C)C)cc4)ncn3)c2c1` the value was inactive: 2.92%.
On to `Nc1c(Br)cc(Br)cc1CNC1CCC(O)CC1` (centres undefined), for which the activation is inactive: -2.68% and inactive: 11.8%.
The same measure, in the same setting: under `CN(C)CC[C@@H](c1ccc(Cl)cc1)c1ccccn1` stands inactive: 5.07% and inactive: -11.6% and inactive: -13.5%; under `COC(=O)C1CCN(Cc2ccc3c(c2)CN(C(=O)c2ccnn2C)CCO3)CC1`, inactive: -8.06%.
Consider `COc1ccc(C(C)=O)cc1`, for which the activation was inactive: -20.7%.
Still for that read-out and setting: under `Cc1ncc2c(c1CNC(=O)c1ccc3c(c1)OCO3)CCN(C(=O)c1ccc3ccccc3c1)C2` stands inactive: -2.62%; under `O=C1N[C@@H](Cc2c[nH]c3ccccc23)C(=O)N[C@H]1Cc1c[nH]c2ccccc12`, inactive: -20.6%.
Still for that read-out and setting: under `C[C@@H]1O[C@@H](OC[C@H]2O[C@@H](Oc3c(-c4cccc(O)c4O)oc4cc(O)cc(O)c4c3=O)[C@H](O)[C@@H](O)[C@@H]2O)[C@H](O)[C@H](O)[C@H]1O` stands inactive: -5.75%; under `O=C(O)c1cc(=O)c2ccc(Cl)cc2[nH]1`, inactive: -7.72% and inactive: -2.8%.
With `O=C(Nc1ccccc1)[C@@H]1CC=C[C@@H]2CCN(C3CCCCC3)C(=O)[C@@H]21`, the activation is inactive: -10.4%.
In the case of `O=C(CC(=O)c1ccccc1)c1ccccc1`, the activation is inactive: 7.7%.
Same read-out and setting: for `COc1ccc(-n2c(=O)c(C)nc3cncnc32)cc1` the value was inactive: -19.1%.
Same read-out and setting: for `CN(CCOc1ccc(CC2SC(=O)NC2=O)cc1)c1ccccn1` (centres undefined) the value was inactive: -13.1%.
